{"source": "PubChem BioAssay AID488969", "about": "(Vanderbilt High Throughput Screening Facility, 2010)", "note": "Whole data set: some 110,000 compounds, median “z-score” near -0.1, cut for the highest 2% near 2. Some of the results follow."}
{"biological_target": "Metabotropic glutamate receptor 8 (Rattus norvegicus) (UniProt P70579)", "sequence (P70579 whole entry, looked up)": "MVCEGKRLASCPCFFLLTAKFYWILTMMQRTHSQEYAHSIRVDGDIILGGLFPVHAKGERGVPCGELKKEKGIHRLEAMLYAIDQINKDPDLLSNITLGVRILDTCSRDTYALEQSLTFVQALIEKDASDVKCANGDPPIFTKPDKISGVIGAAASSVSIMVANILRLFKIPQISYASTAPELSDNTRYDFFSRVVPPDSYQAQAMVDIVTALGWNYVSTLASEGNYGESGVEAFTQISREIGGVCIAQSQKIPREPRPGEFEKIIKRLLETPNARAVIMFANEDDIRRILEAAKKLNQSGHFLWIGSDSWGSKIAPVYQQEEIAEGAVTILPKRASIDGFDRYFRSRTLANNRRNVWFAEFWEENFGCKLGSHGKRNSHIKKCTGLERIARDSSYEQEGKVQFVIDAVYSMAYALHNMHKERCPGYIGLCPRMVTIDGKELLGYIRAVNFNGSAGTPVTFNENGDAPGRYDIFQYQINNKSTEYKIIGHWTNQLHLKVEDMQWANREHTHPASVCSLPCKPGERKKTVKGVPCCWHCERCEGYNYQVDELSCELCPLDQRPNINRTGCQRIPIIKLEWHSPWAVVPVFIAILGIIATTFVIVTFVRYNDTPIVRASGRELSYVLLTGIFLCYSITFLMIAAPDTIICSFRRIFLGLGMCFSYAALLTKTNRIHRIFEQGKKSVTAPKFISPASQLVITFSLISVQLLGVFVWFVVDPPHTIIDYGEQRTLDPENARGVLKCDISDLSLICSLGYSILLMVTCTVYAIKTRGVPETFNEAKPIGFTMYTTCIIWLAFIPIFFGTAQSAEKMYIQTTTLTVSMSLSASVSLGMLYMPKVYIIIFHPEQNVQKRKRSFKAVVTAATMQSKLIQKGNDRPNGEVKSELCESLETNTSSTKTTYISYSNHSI", "assay": "rat mGluR8 modulators via GIRK flux, primary screen, cell-based, thallium flux, HTS (AID 488969)", "conditions": "HEK293 rat mGluR8, GIRK (G protein-gated inwardly rectifying potassium channel) thallium flux, FluoZin2; at 10 µM; stronger effect = higher value; submaximal glutamate (EC20) added with thallium"}
{"smiles": "COc1cccc(NC(=O)C2CCN(S(C)(=O)=O)CC2)c1", "z-score": -0.527}
{"smiles": "CC(C)N(C(=O)CSc1nnc(NC(=O)c2cccs2)s1)C(C)C", "z-score": 1.02}
{"smiles": "Cc1ccc(C(=O)NCC(=O)OCC(=O)c2ccc(C)c([N+](=O)[O-])c2)cc1", "z-score": -0.163}
{"smiles": "COCC(=O)NNS(=O)(=O)c1ccccc1[N+](=O)[O-]", "z-score": 0.0257}
{"smiles": "Cc1ccc2oc(-c3ccc(C)c(NC(=S)NC(=O)c4cccs4)c3)nc2c1", "z-score": 0.703}
{"smiles": "Cc1ccc(/C(O)=C2/C(=O)C(=O)OC2c2ccc(Cl)cc2)cc1", "note": "(centres undefined)", "z-score": -0.593}
{"smiles": "CCOc1ccc(NC(=O)NCC2CCN(c3ccc(OC)cc3)C2)cc1", "note": "(centres undefined)", "z-score": 0.627}
{"smiles": "CC(=O)c1nn(-c2ccc(Br)cc2)cc1C(=O)c1ccccc1", "z-score": -0.317}
{"smiles": "Cc1ccc(/C=C/C(=O)c2ccccc2)cc1", "z-score": 0.0466}
{"smiles": "O=[N+]([O-])c1ccc(/C=N/NC(=S)Nc2ccccc2)o1", "z-score": 2.92}
{"smiles": "O=C(NCCCN1CCN(c2ccccc2F)CC1)C1CCCN(S(=O)(=O)c2cnc[nH]2)C1", "note": "(centres undefined)", "z-score": 0.548}
{"smiles": "Cc1ccc(C(=O)CSc2nnc3c4ccccc4nc(Cc4ccccc4)n23)cc1", "z-score": -0.447}
{"smiles": "COc1ccc(C(NC(=O)c2cccnc2)c2cc(Cl)c3cccnc3c2O)cc1OC", "note": "(centres undefined)", "z-score": 0.0276}
{"smiles": "O=C1CC(c2cccc(Cl)c2)C(n2cncn2)C(=O)C1C1NCCc2ccccc21", "note": "(centres undefined)", "z-score": 0.0747}
{"smiles": "CCC1CCCCN1c1nc(-c2ccncc2)nc2ccccc12", "note": "(centres undefined)", "z-score": -0.323}
{"smiles": "CC(C)c1ccc(/C=C2\\CC/C(=C\\C=N\\N(C)C)C2=O)cc1", "z-score": -0.6}
{"smiles": "O=C(CSCc1ccc(F)cc1)Nc1ccccc1", "z-score": 0.0848}
{"smiles": "O=C(CCS(=O)(=O)c1ccc(Br)cc1)N1CCN(c2ccc(Cl)cc2)CC1", "z-score": -0.00875}
{"smiles": "O=C(NCc1ccc(OC(F)(F)F)cc1)C12CN(Cc3ccccc3)CC1C(c1cccc([N+](=O)[O-])c1)=NO2", "note": "(centres undefined)", "z-score": -0.0978}
{"smiles": "Cc1ccc(-c2csc(NC(=O)CCCc3cccs3)n2)cc1", "z-score": -0.208}
{"smiles": "COc1ccc(CCn2nnnc2C(c2ccccc2)N2CCN(C)CC2)cc1OC", "note": "(centres undefined)", "z-score": 0.996}
{"smiles": "CCOC(=O)Oc1ccc2c(=O)c(Oc3cccc(C)c3)coc2c1", "z-score": -0.318}
{"smiles": "Cc1ccc2[nH]c3c(=O)n(CCc4cnc[nH]4)cnc3c2c1", "z-score": -0.0642}
{"smiles": "O=c1c(Cc2ccc(Cl)cc2)c(O)ccn1Cc1cccc(Cl)c1", "z-score": -0.22}
{"smiles": "Cn1c(=O)c2cc(S(=O)(=O)NC(C(=O)N3CCCCCC3)c3ccccc3)ccc2n(C)c1=O", "note": "(centres undefined)", "z-score": -0.0184}
{"smiles": "O=C(NCCN1CCCCCC1)c1ccc(N2CCCC2=O)cc1", "z-score": 0.102}
{"smiles": "Clc1ccc(CNC2CCCC2)c(Cl)c1", "z-score": 0.236}
{"smiles": "Cc1ccc(S(=O)(=O)c2nc(S(=O)(=O)c3ccc(C)cc3)c(NCc3ccco3)s2)cc1", "z-score": -0.358}
{"smiles": "CCOC(=O)Cc1ccc(NC(=O)c2ccc(C(C)(C)C)cc2)cc1", "z-score": 0.848}
{"smiles": "Cc1cccc(N(CC(=O)Nc2ccc(-c3nc4ccc(C)cc4s3)cc2)S(C)(=O)=O)c1", "z-score": 0.0587}
{"smiles": "O=C(CC1C(=O)N(c2ccccc2)C(=O)N1C1CCCCC1)Nc1ccccc1", "note": "(centres undefined)", "z-score": -0.204}
{"smiles": "O=C(CSc1nc2cccnc2n1Cc1ccccc1)N1CCc2ccccc21", "z-score": -0.1}
{"smiles": "Cc1sc2ncn(CCn3cnc4sc(C)c(C)c4c3=O)c(=O)c2c1C", "z-score": 0.424}
{"smiles": "O=S(=O)(c1ccccc1)N1CCN(S(=O)(=O)N2CCCCC2)CC1", "z-score": -0.0844}
{"smiles": "COc1ccc(C(=O)C[n+]2ccc3c(c2)nc(-c2ccc(OC)cc2OC)n3C)cc1", "z-score": -0.248}
{"smiles": "CCN(CC)S(=O)(=O)c1ccc(F)cc1", "z-score": -0.195}
{"smiles": "COC(=O)c1cc(NC(=O)c2c(Cl)nc3sccn23)cc(C(=O)OC)c1", "z-score": -0.189}
{"smiles": "CSc1c(CC(=O)NCCO)n(C)c2ccccc12", "z-score": 0.0473}
{"smiles": "COCCOc1ccc(C(F)(F)F)cc1NC(=O)c1ccccc1", "z-score": 0.179}
{"smiles": "O=C(COc1ccccc1)Nc1ccc(S(=O)(=O)N2CCCC2)cc1", "z-score": -0.354}
{"smiles": "CCS(=O)(=O)N1CCCC(C(=O)NC2CCCCC2C)C1", "note": "(centres undefined)", "z-score": 0.637}
{"smiles": "Cc1sc(NC(=S)NC(=O)C(C)(C)C)c(C(N)=O)c1C", "z-score": -0.0974}
{"smiles": "O=C1[C@@H]2[C@@H]3C[C@@H]([C@H]4ON=C(c5ccc(Cl)cc5)[C@@H]34)[C@@H]2C(=O)N1c1ccc2c(c1)OCO2", "z-score": 0.168}
{"smiles": "CCc1nc(C)ccc1OCC(=O)O", "z-score": -0.972}
{"smiles": "O=C(NCCN1C(=O)C2C3C=CC(C3)C2C1=O)N1CCOCC1", "note": "(centres undefined)", "z-score": -0.146}
{"smiles": "CCOc1ccc(N2CC(C(=O)Nc3ccccc3N3CCOCC3)CC2=O)cc1", "note": "(centres undefined)", "z-score": -0.169}
{"smiles": "Cc1cc(C)c2c(c1)OC(O)(C(F)F)CC2=O", "note": "(centres undefined)", "z-score": -0.115}
{"smiles": "CCCCc1ccc(NC(=S)NCc2cccs2)cc1", "z-score": 1.5}
{"smiles": "O=C(c1cn(-c2ccccc2)nc1-c1ccc(Cl)cc1)N1CCOCC1", "z-score": -0.177}
{"smiles": "Cc1cccc(N(C(=O)c2ccc(CN3CCOCC3)o2)C(C(=O)NC(C)(C)C)c2ccc(F)cc2)c1", "note": "(centres undefined)", "z-score": -0.312}
{"smiles": "O=C(Nc1ccccc1C(=O)N1CCNCC1)c1ccco1", "z-score": -0.0845}
{"smiles": "CCC(=O)c1ccc(N2CCN(C(=O)c3ccc(Br)cc3)CC2)c(F)c1", "z-score": 0.654}
{"smiles": "O=C(N/N=C/C=C\\c1ccccc1[N+](=O)[O-])c1cc(-c2ccc3ccccc3c2)n[nH]1", "z-score": 0.00824}
{"smiles": "OC(COc1cccc(OCC(O)CN2CCCC2)c1)CN1CCCC1", "note": "(centres undefined)", "z-score": -0.0758}
{"smiles": "CCOC(=O)c1c(Cc2cccc(Cl)c2)c[nH]c1C", "z-score": -0.0958}
{"smiles": "COc1ccccc1C1C2=C(CC(C)(C)CC2=O)Nc2nnnn21", "note": "(centres undefined)", "z-score": -1.1}
{"smiles": "COc1ccccc1CC(=O)O/N=C(\\N)Cc1cccc2ccccc12", "z-score": -0.241}
{"smiles": "Cc1ccccc1NC(=O)CSc1nnc(-c2ccco2)c(-c2ccco2)n1", "z-score": -0.301}
{"smiles": "O=C(O)C1CSC2(CCN(Cc3ccccc3)CC2)N1", "note": "(centres undefined)", "z-score": -0.0401}
{"smiles": "O=C(NC1CC1)c1cccc(Br)c1", "z-score": -0.408}
{"smiles": "c1csc(CNc2ccc3c(c2)OCCO3)c1", "z-score": -0.264}
{"smiles": "Cn1c(SCCC(=O)O)nnc1-c1ccncc1", "z-score": 0.356}
{"smiles": "COc1ccc(CCN(Cc2cc3cc(C)c(C)cc3nc2Cl)C(=O)C2CC2)cc1", "z-score": 0.0611}
{"smiles": "CCc1c(C(=O)NCCc2ccc(OC)c(OC)c2)[nH]c(C)c1C(C)=O", "z-score": -0.963}
{"smiles": "COc1ccc(N2CCN(S(=O)(=O)/C=C/c3ccccc3)CC2)cc1", "z-score": -0.057}
{"smiles": "Cc1ccc(S(=O)(=O)NCCSc2nnnn2C)cc1", "z-score": 0.945}
{"smiles": "O=C(NCC1CCCO1)C(c1cccs1)N(Cc1cccs1)C(=O)c1ccc(-c2ccccc2)[nH]1", "note": "(centres undefined)", "z-score": -0.486}
{"smiles": "O=c1c2c3c(sc2nc(NCCO)n1CCc1ccccc1)CCCCC3", "z-score": 0.773}
{"smiles": "CCOC(=O)Cc1csc(NC(=O)CCN2C(=O)c3ccccc3C2=O)n1", "z-score": 0.0459}
